Reference: the supplement of paper PMC10037445
Whole data set: some 2,900 compounds, median “NF-kB SEAP reporter activity, fold change vs agonist alone” near 0.99, cut for the highest 2% near 2.6. The list shows a part of the results.

Experiments:
[1] = system: RAW-Dual; test: NF-kB SEAP reporter activity, fold change vs agonist alone; higher = enhanced NF-kB activity; settings: library stock concentration (final ~1000-fold dilution): 10 mM
How it was run: (§1)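 RAW-Dual macrophages were seeded in DMEM at 50,000 cells/well in 384-well plates, given 50 nL of library stock by pin tool, and given a PRR agonist 1 h later. Plates were held at 37 °C, 5% CO2 for 20 hours, after which supernatant was read for IRF by QuantiLuc luminescence and for NF-κB by QuantiBlue absorbance at 620 nm. Reporter activity is expressed as fold change over wells that received agonist alone. A well was called cytotoxic when IncuCyte confluency fell below 70% of agonist controls in both mask sets.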

[2] = system: RAW-Dual; test: NF-kB SEAP reporter activity, fold change vs agonist alone; cytotoxicity flag (confluency mask): not cytotoxic; higher = enhanced NF-kB activity
How it was run: as §1

[3] = system: RAW-Dual; test: NF-kB SEAP reporter activity, fold change vs agonist alone; cytotoxicity flag (confluency mask): cytotoxic (confluency <70% of control); higher = enhanced NF-kB activity
How it was run: as §1

[4] = cytotoxicity flag (confluency mask): not cytotoxic, agonist: Imiquimod (TLR7) […]
[5] = cytotoxicity flag (confluency mask): not cytotoxic, agonist: MPLA (TLR4) […]
[6] = agonist: ODN 1826 (TLR9) 0.5 ug/mL
[7] = agonist: Pam2CSK4 (TLR2/6) 0.1 ug/mL
[8] = agonist: Pam3CSK4 (TLR2/1) 0.1 ug/mL

CC(C)(C)c1[nH]cnc1C=c1[nH]c(=O)c(=Cc2ccccc2)[nH]c1=O
NF-kB SEAP reporter activity [1, 4]: 2.47 | NF-kB SEAP reporter activity [1, 5]: 2.5

CC(C)(C)c1[nH]cnc1C=c1[nH]c(=O)c(=Cc2ccccc2)[nH]c1=O (library stock concentration (final ~1000-fold dilution): 10 mM)
NF-kB SEAP reporter activity ([2]; agonist: LPS (TLR4) 0.1 ug/mL): 6.1 | NF-kB SEAP reporter activity [2, 6]: 3.37 | NF-kB SEAP reporter activity [2, 7]: 2.02 | NF-kB SEAP reporter activity [2, 8]: 2.3

O=C(O)CCN1C(=O)C(=Cc2ccc(-c3ccc([N+](=O)[O-])cc3)o2)SC1=S (library stock concentration (final ~1000-fold dilution): 10 mM)
NF-kB SEAP reporter activity ([2]; agonist: LPS (TLR4) 0.1 ug/mL): 0.807 | NF-kB SEAP reporter activity [2, 6]: 0.649 | NF-kB SEAP reporter activity [2, 7]: 0.104 | NF-kB SEAP reporter activity [2, 8]: 0.296

O=C(O)CCN1C(=O)C(=Cc2ccc(-c3ccc([N+](=O)[O-])cc3)o2)SC1=S
NF-kB SEAP reporter activity [1, 4]: 0.675 | NF-kB SEAP reporter activity [1, 5]: 0.731

COC(=O)CNC(=O)C(=O)OC
NF-kB SEAP reporter activity [1, 4]: 0.961 | NF-kB SEAP reporter activity [1, 5]: 1

COC(=O)CNC(=O)C(=O)OC (library stock concentration (final ~1000-fold dilution): 10 mM)
NF-kB SEAP reporter activity ([2]; agonist: LPS (TLR4) 0.1 ug/mL): 0.99 | NF-kB SEAP reporter activity [2, 6]: 0.896 | NF-kB SEAP reporter activity [2, 7]: 0.999 | NF-kB SEAP reporter activity [2, 8]: 1.1

Br.N#Cc1ccc(-c2csc(NN=C3CCCC3)n2)cc1
NF-kB SEAP reporter activity [1, 4]: 0.97 | NF-kB SEAP reporter activity [1, 5]: 1.36

Br.N#Cc1ccc(-c2csc(NN=C3CCCC3)n2)cc1 (library stock concentration (final ~1000-fold dilution): 10 mM)
NF-kB SEAP reporter activity ([2]; agonist: LPS (TLR4) 0.1 ug/mL): 1.89 | NF-kB SEAP reporter activity [2, 6]: 0.82 | NF-kB SEAP reporter activity [2, 7]: 1.1 | NF-kB SEAP reporter activity [2, 8]: 0.869

Oc1ccc(OCc2ccccc2)cc1
NF-kB SEAP reporter activity [1, 4]: 1.74 | NF-kB SEAP reporter activity [1, 5]: 1.66

Oc1ccc(OCc2ccccc2)cc1 (library stock concentration (final ~1000-fold dilution): 10 mM)
NF-kB SEAP reporter activity ([2]; agonist: LPS (TLR4) 0.1 ug/mL): 1.88 | NF-kB SEAP reporter activity [2, 6]: 1.8 | NF-kB SEAP reporter activity [2, 7]: 1.41 | NF-kB SEAP reporter activity [2, 8]: 1.42

CCC1=C(C)CN(C(=O)NCCc2ccc(S(=O)(=O)NC(=O)NC3CCC(C)CC3)cc2)C1=O (stereo not drawn)
NF-kB SEAP reporter activity [1, 4]: 0.845 | NF-kB SEAP reporter activity [1, 5]: 0.962

CCC1=C(C)CN(C(=O)NCCc2ccc(S(=O)(=O)NC(=O)NC3CCC(C)CC3)cc2)C1=O (stereo not drawn) (library stock concentration (final ~1000-fold dilution): 10 mM)
NF-kB SEAP reporter activity ([2]; agonist: LPS (TLR4) 0.1 ug/mL): 1.28 | NF-kB SEAP reporter activity [2, 6]: 0.934 | NF-kB SEAP reporter activity [2, 7]: 1.01 | NF-kB SEAP reporter activity [2, 8]: 0.958

CNC(=O)c1cc(COc2nnc(Nc3ccc(Cl)cc3)c3ccoc23)ccn1 (library stock concentration (final ~1000-fold dilution): 10 mM)
NF-kB SEAP reporter activity ([2]; agonist: LPS (TLR4) 0.1 ug/mL): 0.547 | NF-kB SEAP reporter activity [2, 6]: 0.947 | NF-kB SEAP reporter activity [2, 7]: 0.802 | NF-kB SEAP reporter activity [2, 8]: 0.958

CNC(=O)c1cc(COc2nnc(Nc3ccc(Cl)cc3)c3ccoc23)ccn1
NF-kB SEAP reporter activity [1, 4]: 1.12 | NF-kB SEAP reporter activity [1, 5]: 0.931

O=C(O)/C=C/c1ccc(Cn2ccnc2)cc1 (library stock concentration (final ~1000-fold dilution): 10 mM)
NF-kB SEAP reporter activity ([2]; agonist: LPS (TLR4) 0.1 ug/mL): 0.931 | NF-kB SEAP reporter activity [2, 6]: 1.02 | NF-kB SEAP reporter activity [2, 7]: 1.02 | NF-kB SEAP reporter activity [2, 8]: 1.05

O=C(O)/C=C/c1ccc(Cn2ccnc2)cc1
NF-kB SEAP reporter activity [1, 4]: 0.986 | NF-kB SEAP reporter activity [1, 5]: 1.02

COc1cc2nccc(Oc3ccc(NC(=O)C4(C(=O)Nc5ccc(F)cc5)CC4)cc3)c2cc1OC (library stock concentration (final ~1000-fold dilution): 10 mM)
NF-kB SEAP reporter activity ([2]; agonist: LPS (TLR4) 0.1 ug/mL): 0.511 | NF-kB SEAP reporter activity [2, 6]: 0.42 | NF-kB SEAP reporter activity [2, 7]: 0.302 | NF-kB SEAP reporter activity [2, 8]: 0.275

COc1cc2nccc(Oc3ccc(NC(=O)C4(C(=O)Nc5ccc(F)cc5)CC4)cc3)c2cc1OC
NF-kB SEAP reporter activity [1, 4]: 0.555 | NF-kB SEAP reporter activity [1, 5]: 0.59

Cl.Nc1ncccc1-c1nc2ccc(-c3ccccc3)nc2n1-c1ccc(C2(N)CCC2)cc1 (library stock concentration (final ~1000-fold dilution): 10 mM)
NF-kB SEAP reporter activity ([3]; agonist: LPS (TLR4) 0.1 ug/mL): 0.954 | NF-kB SEAP reporter activity [3, 6]: 0.218 | NF-kB SEAP reporter activity [3, 7]: 0.921 | NF-kB SEAP reporter activity [3, 8]: 1.38

Cl.Nc1ncccc1-c1nc2ccc(-c3ccccc3)nc2n1-c1ccc(C2(N)CCC2)cc1
NF-kB SEAP reporter activity ([1]; cytotoxicity flag (confluency mask): cytotoxic (confluency <70% of control), agonist: Imiquimod (TLR7) […]): 1.7 | NF-kB SEAP reporter activity ([1]; cytotoxicity flag (confluency mask): cytotoxic (confluency <70% of control), agonist: MPLA (TLR4) […]): 1.8

CC(C)=CCC/C(C)=C/CC/C(C)=C/CC/C(C)=C/CC/C(C)=C/CC/C(C)=C/CC/C(C)=C/CC/C(C)=C/CC/C(C)=C/CO
NF-kB SEAP reporter activity [1, 4]: 0.89 | NF-kB SEAP reporter activity [1, 5]: 0.978

CC(C)=CCC/C(C)=C/CC/C(C)=C/CC/C(C)=C/CC/C(C)=C/CC/C(C)=C/CC/C(C)=C/CC/C(C)=C/CC/C(C)=C/CO (library stock concentration (final ~1000-fold dilution): 10 mM)
NF-kB SEAP reporter activity ([2]; agonist: LPS (TLR4) 0.1 ug/mL): 0.89 | NF-kB SEAP reporter activity [2, 6]: 0.925 | NF-kB SEAP reporter activity [2, 7]: 0.89 | NF-kB SEAP reporter activity [2, 8]: 0.954

COCCOC(=O)C1=C(C)NC(C)=C(C(=O)OC/C=C/c2ccccc2)C1c1cccc([N+](=O)[O-])c1 (stereo not drawn) (library stock concentration (final ~1000-fold dilution): 10 mM)
NF-kB SEAP reporter activity ([2]; agonist: LPS (TLR4) 0.1 ug/mL): 0.744 | NF-kB SEAP reporter activity [2, 6]: 0.511 | NF-kB SEAP reporter activity [2, 7]: 0.375 | NF-kB SEAP reporter activity [2, 8]: 0.398

COCCOC(=O)C1=C(C)NC(C)=C(C(=O)OC/C=C/c2ccccc2)C1c1cccc([N+](=O)[O-])c1 (stereo not drawn)
NF-kB SEAP reporter activity [1, 4]: 0.933 | NF-kB SEAP reporter activity [1, 5]: 0.64

COc1cc(O)c(C(=O)Nc2nc(C(=O)NCCN(C(C)C)C(C)C)cs2)cc1OC
NF-kB SEAP reporter activity [1, 5]: 1.01

COc1cc(O)c(C(=O)Nc2nc(C(=O)NCCN(C(C)C)C(C)C)cs2)cc1OC (library stock concentration (final ~1000-fold dilution): 10 mM)
NF-kB SEAP reporter activity ([2]; agonist: LPS (TLR4) 0.1 ug/mL): 0.987 | NF-kB SEAP reporter activity [2, 6]: 1.02 | NF-kB SEAP reporter activity [2, 7]: 0.952 | NF-kB SEAP reporter activity [2, 8]: 1.07

Cc1cc(C)cc(C(=O)NOCCCCCC(=O)NO)c1 (library stock concentration (final ~1000-fold dilution): 10 mM)
NF-kB SEAP reporter activity ([3]; agonist: LPS (TLR4) 0.1 ug/mL): 5.28
